Assay results reported in PubChem BioAssay AID493208 (National Center for Advancing Translational Sciences (NCATS), 2011).
Screen size: about 44,000 compounds; about 340 (0.77%) were called active. Another 5% or so got no clear call; they are omitted. Calls follow the shape of the dose curve; as a rule, active = well fitted inhibition curve with a large enough effect; inconclusive = small, poorly fitted or top-dose-only effect; inactive = flat fitted curve, though single readings scatter. This is one part of the list.

Assay: Acumen qHTS Assay for Inhibitors of the mTORC1 Signaling Pathway in MEF (Tsc2-/-, p53-/-) Cells: Sytravon;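 also: plate controls were DMSO for no effect and rapamycin for full effect; nearly all actives have a fitted effect of over 50% in size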
Details: phospho-rpS6 immunofluorescence/PI, 24 h; series mostly up to 38.3 µM; activity change, negative = inhibition: at the top concentration
In short: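 Tsc2-/-, p53-/- MEFs (empty-vector stable line) in DMEM + 10% FBS were treated with compounds 24 h at 37 degree Celsius, fixed, and immunostained for phospho-rpS6 (Alexa-488) with propidium iodide counterstain. Laser-scanning cytometry gave % positive cells, normalized against 7.5 nM rapamycin and DMSO.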

Activity change, negative = inhibition, inactive:
CCn1cc(/C=C(\NC(=O)c2ccc(OC)cc2)C(=O)NCCCn2ccnc2)c2ccccc21 3.03%
COc1ccccc1CNC(=O)C1CCN(c2nc3ccc(Cl)cc3[nH]2)CC1 10.7%
COc1cc2c(=O)n(CCC(=O)NCC3CCCO3)c(=O)n(CC(=O)Nc3ccccc3C)c2cc1OC (configuration not stated) -1.83%
CCc1nn(CC(=O)NCCc2ccc(OC)cc2OC)c(=O)c2cc3occc3n12 -4.15%
CCCCc1ccc(-n2nc3cc(C)c(NC(=O)c4ccc(C#N)cc4F)cc3n2)cc1 1.4%
O=C(NCCn1cc(SCc2ccc(C(F)(F)F)cc2)c2ccccc21)c1cccs1 -16.5%
Cc1nnc(SCC(=O)NCc2cccc(F)c2)c2nn(-c3ccccc3)c(C)c12 -2.5%
Cc1cccc(NC(=O)CSc2nc(=O)n(CCN3CCOCC3)c3c2CCC3)c1 -0.221%
Cc1ccc(-n2ncc(C(=O)NCCN3CCc4ccccc4C3)c2C2CCN(C(=O)OC(C)(C)C)CC2)c(C)c1 -6.19%
O=C(CN1C(=O)COc2ccc(S(=O)(=O)NC3CCCC3)cc21)Nc1ccc(F)c(Cl)c1 -7.22%
Cc1ccc2nc(-c3ccc(N4CCOCC4)cc3)c(Nc3ccccc3C)n2c1 -2.29%
COc1cccc(NC(=O)CN2C(=O)COc3ccc(S(=O)(=O)N4CCOCC4)cc32)c1 3.81%
CN(c1nnc(NC(=O)Nc2ccc(Br)cc2)s1)C1CCCCC1 -0.713%
COc1ccccc1CNc1ncnc2onc(-c3ccc(Cl)cc3)c12 -1.09%
Cc1ccc(NC(=O)Nc2csc3c2CCCC3)c(C)c1 -2.38%
Cc1cc(C(=O)Nc2ccc(Cl)cc2)c2c(C)nn(-c3ccccc3)c2n1 -5.48%
CCCS(=O)(=O)NCCc1sc2nc(-c3ccc(Cl)cc3)nn2c1C 0.568%
NC(=O)C1CCN(C(=O)c2ccccc2NC(=O)c2nsc3ccccc23)CC1 -0.298%
CCOC(=O)c1c(NC(=O)c2cc(=O)c3c(C)cc(C)cc3o2)sc(C)c1C 0.524%
COc1ccccc1Nc1nn2c(=O)c3ccc(C(=O)NC4CCCCC4)cc3nc2s1 0.888%
CCOc1ccc(N(CC(=O)NCc2ccc(C)cc2)S(=O)(=O)c2c(C)[nH]c(=O)[nH]c2=O)cc1 -7.19%
Brc1ccc(-c2csc(-c3nc(-c4ccc(Br)s4)cs3)n2)cc1 5.26%
CCOC(=O)N1CCc2c(sc(NCc3ccc(N(C)C)cc3)c2C(=O)Nc2ccccc2OCC)C1 -26.6%
CCc1ccc(NC(=O)c2sc3nc(-c4ccccc4)cn3c2C)cc1 -2.45%
CCN1CCN(C(c2cccc(OC)c2)c2c(O)cc(C)n(Cc3ccco3)c2=O)CC1 (configuration not stated) -26.8%
CCN(CC)CCNC(=O)Cn1cnc2sc(C)c(S(=O)(=O)N3CCN(c4ccccc4OC)CC3)c2c1=O 4.69%
CCOc1ccc(NC(=O)CSc2oc(-c3ccco3)nc2S(=O)(=O)c2ccc(Cl)cc2)cc1 -15.8%
O=C(Nc1ccccc1C(F)(F)F)N1Cc2ccccc2Oc2ncccc21 0%
CC(NC(=O)c1ccc(Cn2c(SCc3ccccc3)nc3cccnc32)cc1)c1ccccc1 (configuration not stated) -25.2%
CC(CCc1ccccc1)NC(=O)Cn1ncc2c3ccccc3n(Cc3cccc(Cl)c3)c2c1=O (configuration not stated) -0.225%
COc1ccc(CN(C(=O)c2ccc(OCC(C)C)cc2)C2CCS(=O)(=O)C2)cc1 (configuration not stated) -0.567%
Cc1cccc(C(=O)NCc2nnc(SCC(=O)Nc3ccccc3F)n2-c2ccccc2)c1 -0.457%
CCc1cccc(-n2nnc(-c3nc(-c4ccc5c(c4)OCO5)no3)c2C)c1 0.542%
COc1ccc(NC(=O)CSc2nc(-c3ccccc3)c3ccccc3n2)cc1 -5.45%
CCOC(=O)c1cc(-c2ccc(OC)cc2)n(CCC(=O)NC2CCC(C)CC2)c1C (configuration not stated) -11.3%
COc1ccc(N2CCN(C(=O)Nc3ccc(Cl)cc3)CC2)cc1 6.74%
COc1ccc(S(=O)(=O)N2CCN(C(=O)c3cc(-c4ccc(Br)cc4)n[nH]3)CC2)cc1OC -10.1%
CCOc1ccc(NCc2cccn2-c2nnc(N3CCC(C(=O)NCCc4ccc(OCC)c(OCC)c4)CC3)s2)cc1 -1.3%
COCCn1c(C)cc(O)c(C(c2ccc(OC)cc2)N2CCCCC2)c1=O (configuration not stated) 0%
CC1CN(C(=O)Nc2ccc(C(=O)NCCc3ccc(Cl)cc3)cc2)c2ccccc2S1 (configuration not stated) -0.016%
Cc1ccccc1NC(=O)CSCn1nnc2c(=O)[nH]c(Cc3ccc(F)cc3)nc21 0.382%
CCCC(=O)Nc1ccc2nc(SCCOc3ccccc3)sc2c1 -10.7%
CCCN1Cc2cccc(C(=O)Nc3ccccc3F)c2C1=O -0.334%
Cn1c(C(=O)NCCc2ccccc2)cc2cc(S(=O)(=O)N3CCCCC3)ccc21 15.3%
Cc1cccc(NC(=O)C(=O)NCC(c2cccnc2)N2CCN(Cc3ccccc3)CC2)c1 (configuration not stated) 5.9%
COc1ccc(Cl)cc1NC(=O)c1c(NCc2cccnc2)sc2c1CCCC2 -12.1%
CC(C)(C)OC(=O)N1CCC(c2c(C(=O)NCCc3ccsc3)cnn2-c2ccc(F)cc2F)CC1 0.273%
